Laboratory results from the supplement of paper PMC8728848.
Some of the results follow.

Tests used:
Assay in all cases: glycan array binding signal (z-score within array); higher = stronger binding
Settings in all cases: glycan notation: IUPAC condensed, linker removed
Fuc(a1-2)Gal = biological target: Fuc(a1-2)Gal
Method in brief: (§1)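 Negative Z-scores can be read as non-binding. The Z-score is calculated within each array and then averaged across arrays of one protein sequence at different concentrations or buffers and across linkers. Arrays, 3228 in all, were curated from the Consortium for Functional Glycomics database and kept only where the protein sequence was available.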

Fuc(a1-2)Gal(b1-3)GalNAc = biological target: Fuc(a1-2)Gal(b1-3)GalNAc
Method in brief: as §1

[1] = biological target: Fuc(a1-2)Gal(b1-3)GalNAc(a1-3)[Fuc(a1-2)]Gal(b1-4)Glc
Method in brief: as §1

[2] = biological target: Fuc(a1-2)Gal(b1-3)GalNAc(a1-3)[Fuc(a1-2)]Gal(b1-4)GlcNAc
Method in brief: as §1

[3] = biological target: Fuc(a1-2)Gal(b1-3)GalNAc(b1-3)Gal
Method in brief: as §1

[4] = biological target: Fuc(a1-2)Gal(b1-3)GalNAc(b1-3)Gal(a1-4)Gal(b1-4)Glc
Method in brief: as §1

[5] = biological target: Fuc(a1-2)Gal(b1-3)GalNAc(b1-4)[Neu5Ac(a2-3)]Gal(b1-4)Glc
Method in brief: as §1

Fuc(a1-2)Gal(b1-3)GlcNAc = biological target: Fuc(a1-2)Gal(b1-3)GlcNAc
Method in brief: as §1

[6] = biological target: Fuc(a1-2)Gal(b1-3)GlcNAc(b1-2)Man(a1-3)[Fuc(a1-2)Gal(b1-3)GlcNAc(b1-2)Man(a1-6)]Man(b1-4)GlcNAc(b1-4)GlcNAc
Method in brief: as §1

[7] = biological target: Fuc(a1-2)Gal(b1-3)GlcNAc(b1-2)Man(a1-3)[Fuc(a1-2)Gal(b1-3)GlcNAc(b1-2)Man(a1-6)]Man(b1-4)GlcNAc(b1-4)[Fuc(a1-6)]GlcNAc
Method in brief: as §1

[8] = biological target: Fuc(a1-2)Gal(b1-3)GlcNAc(b1-3)Gal(b1-4)Glc
Method in brief: as §1

[9] = biological target: Fuc(a1-2)Gal(b1-3)GlcNAc(b1-3)GalNAc
Method in brief: as §1

[10] = biological target: Fuc(a1-2)Gal(b1-3)GlcNAc(b1-3)[Fuc(a1-2)Gal(b1-3)GlcNAc(b1-6)]GalNAc
Method in brief: as §1

[11] = biological target: Fuc(a1-2)Gal(b1-3)GlcNAc(b1-3)[Gal(b1-4)GlcNAc(b1-6)]Gal(b1-4)Glc
Method in brief: as §1

[12] = biological target: Fuc(a1-2)Gal(b1-3)GlcNAc(b1-3)[Neu5Ac(a2-6)Gal(b1-4)GlcNAc(b1-6)]Gal(b1-4)Glc
Method in brief: as §1

[13] = biological target: Fuc(a1-2)Gal(b1-3)GlcNAc6S
Method in brief: as §1

[14] = biological target: Fuc(a1-2)Gal(b1-3)[Fuc(a1-4)]GlcNAc
Method in brief: as §1

[15] = biological target: Fuc(a1-2)Gal(b1-3)[Fuc(a1-4)]GlcNAc(b1-2)Man(a1-3)[Fuc(a1-2)Gal(b1-3)[Fuc(a1-4)]GlcNAc(b1-2)Man(a1-3)]Man(b1-4)GlcNAc(b1-4)GlcNAc
Method in brief: as §1

[16] = biological target: Fuc(a1-2)Gal(b1-3)[Fuc(a1-4)]GlcNAc(b1-2)Man(a1-3)[Fuc(a1-2)Gal(b1-3)[Fuc(a1-4)]GlcNAc(b1-2)Man(a1-6)]Man(b1-4)GlcNAc(b1-4)[Fuc(a1-6)]GlcNAc(b1-4)[Fuc(a1-6)]GlcNAc
Method in brief: as §1

[17] = biological target: Fuc(a1-2)Gal(b1-3)[Fuc(a1-4)]GlcNAc(b1-3)[Fuc(a1-3)[Gal(b1-4)]GlcNAc(b1-6)]Gal(b1-4)Glc
Method in brief: as §1

[18] = biological target: Fuc(a1-2)Gal(b1-3)[Fuc(a1-4)]GlcNAc(b1-3)[Gal(b1-4)GlcNAc(b1-6)]Gal(b1-4)Glc
Method in brief: as §1

Fuc(a1-2)Gal(b1-4)Glc = biological target: Fuc(a1-2)Gal(b1-4)Glc
Method in brief: as §1

Fuc(a1-2)Gal(b1-4)Glc6S = biological target: Fuc(a1-2)Gal(b1-4)Glc6S
Method in brief: as §1

Fuc(a1-2)Gal(b1-4)GlcNAc = biological target: Fuc(a1-2)Gal(b1-4)GlcNAc
Method in brief: as §1

[19] = biological target: Fuc(a1-2)Gal(b1-4)GlcNAc(b1-2)Man
Method in brief: as §1

[20] = biological target: Fuc(a1-2)Gal(b1-4)GlcNAc(b1-2)Man(a1-3)[Fuc(a1-2)Gal(b1-4)GlcNAc(b1-2)Man(a1-6)]Man(b1-4)GlcNAc(b1-4)GlcNAc
Method in brief: as §1

[21] = biological target: Fuc(a1-2)Gal(b1-4)GlcNAc(b1-2)Man(a1-3)[Fuc(a1-2)Gal(b1-4)GlcNAc(b1-2)Man(a1-6)]Man(b1-4)GlcNAc(b1-4)[Fuc(a1-6)]GlcNAc
Method in brief: as §1

[22] = biological target: Fuc(a1-2)Gal(b1-4)GlcNAc(b1-2)[Fuc(a1-2)Gal(b1-4)GlcNAc(b1-4)]Man(a1-3)[Fuc(a1-2)Gal(b1-4)GlcNAc(b1-2)Man(a1-6)]Man(b1-4)GlcNAc(b1-4)GlcNAc
Method in brief: as §1

[23] = biological target: Fuc(a1-2)Gal(b1-4)GlcNAc(b1-3)Gal(b1-4)GlcNAc
Method in brief: as §1

[24] = biological target: Fuc(a1-2)Gal(b1-4)GlcNAc(b1-3)Gal(b1-4)GlcNAc(b1-2)Man(a1-3)[Fuc(a1-2)Gal(b1-4)GlcNAc(b1-3)Gal(b1-4)GlcNAc(b1-2)Man(a1-6)]Man(b1-4)GlcNAc(b1-4)GlcNAc
Method in brief: as §1

[25] = biological target: Fuc(a1-2)Gal(b1-4)GlcNAc(b1-3)Gal(b1-4)GlcNAc(b1-3)Gal(b1-4)GlcNAc
Method in brief: as §1

[26] = biological target: Fuc(a1-2)Gal(b1-4)GlcNAc(b1-3)GalNAc
Method in brief: as §1

[27] = biological target: Fuc(a1-2)Gal(b1-4)GlcNAc(b1-3)[Fuc(a1-2)Gal(b1-4)GlcNAc(b1-6)]GalNAc
Method in brief: as §1

[28] = biological target: Fuc(a1-2)Gal(b1-4)GlcNAc(b1-3)[Fuc(a1-3)[Gal(b1-4)]GlcNAc(b1-6)]Gal(b1-4)Glc
Method in brief: as §1

[29] = biological target: Fuc(a1-2)Gal(b1-4)GlcNAc(b1-6)GalNAc
Method in brief: as §1

[30] = biological target: Fuc(a1-2)Gal(b1-4)GlcNAc6S
Method in brief: as §1

[31] = biological target: Fuc(a1-2)Gal(b1-4)[Fuc(a1-3)]GlcNAc
Method in brief: as §1

[32] = biological target: Fuc(a1-2)Gal(b1-4)[Fuc(a1-3)]GlcNAc(b1-2)Man(a1-3)[Fuc(a1-2)Gal(b1-4)[Fuc(a1-3)]GlcNAc(b1-2)Man(a1-6)]Man(b1-4)GlcNAc(b1-4)[Fuc(a1-6)]GlcNAc
Method in brief: as §1

[33] = biological target: Fuc(a1-2)Gal(b1-4)[Fuc(a1-3)]GlcNAc(b1-2)[Fuc(a1-2)Gal(b1-4)[Fuc(a1-3)]GlcNAc(b1-4)]Man(a1-3)[Fuc(a1-2)Gal(b1-4)[Fuc(a1-3)]GlcNAc(b1-2)Man(a1-6)]Man(b1-4)GlcNAc(b1-4)GlcNAc
Method in brief: as §1

[34] = biological target: Fuc(a1-2)Gal(b1-4)[Fuc(a1-3)]GlcNAc(b1-3)Gal(b1-4)[Fuc(a1-3)]GlcNAc
Method in brief: as §1

[35] = biological target: Fuc(a1-2)Gal(b1-4)[Fuc(a1-3)]GlcNAc(b1-3)Gal(b1-4)[Fuc(a1-3)]GlcNAc(b1-3)Gal(b1-4)[Fuc(a1-3)]GlcNAc
Method in brief: as §1

[36] = biological target: Fuc(a1-2)Gal(b1-4)[Fuc(a1-3)]GlcNAc(b1-3)GalNAc
Method in brief: as §1

[37] = biological target: Fuc(a1-2)Gal(b1-4)[Fuc(a1-3)]GlcNAc(b1-3)[Neu5Ac(a2-6)Gal(b1-4)GlcNAc(b1-6)]Gal(b1-4)Glc
Method in brief: as §1

[38] = biological target: Fuc(a1-2)Gal3S(b1-4)GlcNAc
Method in brief: as §1

[39] = biological target: Fuc(a1-2)Gal6S(b1-3)GlcNAc
Method in brief: as §1

B1: Clrb (Mus musculus) (protein)
chain: ITGATKTEQIPVNKTYAACPQNWIGVENKCFYFSEYPSNWTFAQAFCMAQEAQLARFDNQDELNFLMRYKANFDSWIGLHRESSEHPWKWTDNTEYNNTIPIRGEERFAYLNNNGISSTRIYSLRMWICSKLNSYSLHCQTPFFPSGTKHHHHHHHHG
glycan array binding signal (z-score) (Fuc(a1-2)Gal): -0.291 | glycan array binding signal (z-score) (Fuc(a1-2)Gal(b1-3)GalNAc): -0.192 | glycan array binding signal (z-score) [1]: -0.421 | glycan array binding signal (z-score) [2]: -0.297 | glycan array binding signal (z-score) [3]: -0.518 | glycan array binding signal (z-score) [4]: -0.297 | glycan array binding signal (z-score) [5]: -0.337 | glycan array binding signal (z-score) (Fuc(a1-2)Gal(b1-3)GlcNAc): -0.121 | glycan array binding signal (z-score) [6]: -0.336 | glycan array binding signal (z-score) [7]: 0.033 | glycan array binding signal (z-score) [8]: -0.418 | glycan array binding signal (z-score) [9]: -0.555 | glycan array binding signal (z-score) [10]: -0.265 | glycan array binding signal (z-score) [11]: -0.45 | glycan array binding signal (z-score) [12]: -0.377 | glycan array binding signal (z-score) [13]: -0.348 | glycan array binding signal (z-score) [14]: -0.043 | glycan array binding signal (z-score) [15]: -0.353 | glycan array binding signal (z-score) [16]: -0.312 | glycan array binding signal (z-score) [17]: -0.289 | glycan array binding signal (z-score) [18]: -0.316 | glycan array binding signal (z-score) (Fuc(a1-2)Gal(b1-4)Glc): -0.258 | glycan array binding signal (z-score) (Fuc(a1-2)Gal(b1-4)Glc6S): -0.545 | glycan array binding signal (z-score) (Fuc(a1-2)Gal(b1-4)GlcNAc): -0.172 | glycan array binding signal (z-score) [19]: -0.421 | glycan array binding signal (z-score) [20]: 0.014 | glycan array binding signal (z-score) [21]: -0.198 | glycan array binding signal (z-score) [22]: -0.327 | glycan array binding signal (z-score) [23]: -0.474 | glycan array binding signal (z-score) [24]: -0.291 | glycan array binding signal (z-score) [25]: -0.289 | glycan array binding signal (z-score) [26]: -0.451 | glycan array binding signal (z-score) [27]: -0.296 | glycan array binding signal (z-score) [28]: -0.357 | glycan array binding signal (z-score) [29]: -0.391 | glycan array binding signal (z-score) [30]: -0.2 | glycan array binding signal (z-score) [31]: -0.327 | glycan array binding signal (z-score) [32]: -0.331 | glycan array binding signal (z-score) [33]: -0.314 | glycan array binding signal (z-score) [34]: -0.259 | glycan array binding signal (z-score) [35]: -0.391 | glycan array binding signal (z-score) [36]: -0.388 | glycan array binding signal (z-score) [37]: -0.359 | glycan array binding signal (z-score) [38]: -0.31 | glycan array binding signal (z-score) [39]: -0.266
